Data published in ChEMBL document CHEMBL4888484, “Replenishing the malaria drug discovery pipeline: Screening and hit evaluation of the MMV Hit Generation Library 1 (HGL1) against asexual blood stage Plasmodium falciparum ,using a nano luciferase reporter read-out” (2022).
Values joined by “and” are separate entries in the source; they are usually repeats but may differ in a detail not shown here. Identical values can stand only once. Out of some 150,000 compounds screened, about 540 (0.36%) showed an effect of 50% or more. The list shows a part of the results.

Tested on: Plasmodium falciparum
Test: Primary screen in NF54 nanoGlo assay, in single point, at 2uM, 72h; a lower Z score goes with more inhibition
Assay type: functional, Erythrocyte
Settings: timepoint 72 hour

SMILES | % Inhibition [%] | Z score | % Inhibition (2 µM) | Z score (2 µM)
COCc1nocc1C(=O)N1CCC[C@H]1c1nc(N(C)C)no1 | 6 | -0.64 | – | –
Cc1cc(CC(=O)N2CC(F)(F)C[C@H]2c2nc(C)no2)on1 | -5 | 0.82 | – | –
Cc1c(NC(=O)c2ccn(C)c(=O)c2)cccc1OC1CCCC1 | -15 | 1.84 | – | –
O=C(c1c(O)cc(Cl)cc1Cl)N1CCC2(CCC2)C1 | -11 | 0.97 | – | –
CN(C)c1cccc(C(=O)N2[C@H](C(=O)NC3CC3)C[C@@H]3OCC[C@@H]32)c1 | -5 | 0.87 | – | –
O=C(Cn1c(COc2ccc(Cl)cc2)nc2ccccc21)Nc1ccccc1Cc1ccccc1 | -4 | 0.68 | – | –
CNC[C@H]1CCCN1C(=O)c1ccc(-c2noc(C(F)(F)F)n2)cc1 | 38 | -1.3 | – | –
CN1C(=O)CN(S(=O)(=O)CC2CC2)[C@H]1c1ccccc1 | -6 | 0.72 | – | –
Cc1nnc(CNC(=O)Cc2csc(NC(=O)c3ncccn3)n2)o1 | -14 | 1.62 | – | –
CCOC1(C(=O)NS(=O)(=O)C[C@H](C)OC)CCCC1 | -8 | 1.57 | – | –
C[C@@H](c1ccc2c(c1)OCCO2)N(C)C(=O)COc1ccc2nncn2n1 | -21 | 2.21 | – | –
NC(=O)CCC1NC2(C(=O)Nc3ccccc32)C2C(=O)N(c3cc(C(F)(F)F)ccc3Cl)C(=O)C12 (stereo not given) | 4 | -0.47 | – | –
COc1ccc(Cc2nc([C@H](C)N3CCCC3)n(CCO)n2)cc1 | -5 | 0.49 | – | –
Nc1ccc(Oc2ncnc3nc[nH]c23)cc1 | – | – | -13% and -25% | 1.95 and 3.53
Cc1nn(C)c2nc(N3CCC(N4CCCCCC4)CC3)sc12 | -7 | 1.48 | – | –
CCC1(CNCc2nc(CO)cs2)CCC1 | -2 | 0.35 | – | –
COc1cc(CCNC(=O)C2CCN(CC(F)F)CC2)ccc1C | -5 | 0.92 | – | –
CN(CCC(=O)Nc1ccccc1-c1ccccc1)Cc1ccco1 | -1 | 0.09 | – | –
CCCc1cc(C(=O)N(C)Cc2ccc3nccnc3c2)no1 | -4 | 0.64 | – | –
Cc1nc(CNC(=O)NC2c3cccc(F)c3CCC2C)no1 (stereo not given) | -4 | 0.53 | – | –
Cc1ccc(NC(=O)c2nc(C)c(C)nc2C(=O)NC(C)C)cc1 | -38 | 4.5 | – | –
COCCn1cc2c(n1)[C@@H](NS(=O)(=O)N1CCOCC1)CCC2 | -1 | 0.08 | – | –

SMILES | % Inhibition [%] | Z score | % Inhibition (2 µM) | Z score (2 µM)
CCC(NC(=O)c1cn(CC(O)c2ccsc2)nn1)c1cccs1 (stereo not given) | -8 | 1.58 | – | –
CCN1CCN(C(=O)[C@@]2(CCO)CC23CCOCC3)CC1 | 0 | 0.02 | – | –
N#Cc1ccc(Br)c(OC(F)(F)F)c1 | -13 | 2.5 | – | –
O=C(Nc1nccnc1C(=O)O)c1ccc(Cl)cc1 | 37 | -1.39 | – | –
COc1ccc(Cl)cc1NC(=O)N1CCC(n2cnc3c(C)cccc3c2=O)CC1 | -8 | 0.91 | – | –
CCc1ccc(CC)c(NC(=O)N(CCO)CC(F)F)c1 | -6 | 0.56 | – | –
CN(C)c1cccc(-c2cc3c(cc2OC(C)(C)C(=O)O)OCC3)c1 | -4 | 0.83 | – | –
O=C(c1ccco1)N1CCOc2ccc(CN3CCc4ccccc4C3)cc2C1 | -13 | 1.43 | – | –
CC(C)(C)[C@@H]1CN(c2cc(CO)cc(C(F)(F)F)n2)CCO1 | -8 | 0.79 | – | –
CCC(=O)Nc1ccc(-n2nc(OCCc3ccc(OC)cc3)nc2-c2ccc(Cl)c(Cl)c2)cc1 | -12 | 1.19 | – | –
Cn1nc(-c2nc(-c3cccc(F)c3)no2)c2c1CCN(C(=O)c1cccc(F)c1)C2 | -7 | 0.84 | – | –
CC(Cn1cncn1)NC(=O)CC(O)c1cc(Cl)cc(Cl)c1 (stereo not given) | -7 | 1.18 | – | –
CCc1ccc(CN(CCN2C(=O)NC(C)(C)C2=O)C2CC2)cc1 | -41 | 4.83 | – | –
O=C1NC(=O)[C@H](CCC(=O)N(Cc2cccnc2)C2CCCCC2)N1 | -12 | 1.24 | – | –
Cn1cc(C(NC(=O)c2cc3ncccn3n2)[C@H]2C[C@@H](O)C2)cn1 (stereo not given in full) | -13 | 1.37 | – | –
COCc1nnc2n1CC[C@@H](NC(=O)c1sc(C)nc1C)CC2 | -6 | 0.86 | – | –
Cc1ccc2[nH]c3c(c2c1)CC(NC(=O)N1CCCC(C2CCCCO2)C1)CC3 (stereo not given) | -4 | 0.79 | – | –
O=C(NCc1ccc(F)cc1)[C@@H]1Cc2c(ccc3ccccc23)O1 | -13 | 1.64 | – | –
Cc1c(CN2CCC[C@@](F)(C(=O)N3CCCC3)C2)cnn1C | -18 | 1.6 | – | –
CC(=O)N1C[C@@H]2C[C@H](NC(=O)c3ccc(C)c(F)c3)CN2C(=O)[C@@H]1C | -20 | 1.73 | – | –
Cc1noc(C)c1S(=O)(=O)NC1CCN(C)CC1 | 7 | -0.84 | – | –
N#Cc1ccc(S(=O)(=O)Nc2nccn3ccnc23)cc1 | -6 | 0.89 | – | –

SMILES | % Inhibition [%] | Z score | % Inhibition (2 µM) | Z score (2 µM)
O=S(=O)(NCCNc1ccc(-n2cccn2)nn1)c1cccs1 | 4 | -0.71 | – | –
CC1C(=O)CCN(CCc2ccccc2)C1C (stereo not given) | -10 | 1.24 | – | –
CC(=O)N(CCN1CCCCC1)[C@H]1CCCN(Cc2cccc(Cl)c2)C1 | 14 | -1.89 | – | –
CCOC(=O)N1CCC(Nc2cc(-c3ncco3)ccc2C)CC1 | 22 | -2.52 | – | –
COc1ccc(OC)c(NC(=O)Cn2c(=O)c3c(C(=O)N4CCCCC4)cc(C)nc3n(C)c2=O)c1 | 8 | -1.07 | – | –
COc1ccc(NC(=O)c2ccoc2C)cc1S(=O)(=O)N1CCCCC1 | -8 | 1.22 | – | –
COc1ccc(OCc2cc(C(=O)N[C@@H](C)Cc3ccccn3)no2)c2ccccc12 | -5 | 0.72 | – | –
Cc1ccc(NC(=O)c2ccc3c(c2)[C@@H](O)CCCCCN3C)cc1 | -15 | 1.77 | – | –
CCCOc1ccc(-c2nnc3n2CC[C@H](C(=O)OC)C3)cc1OC | 3 | -0.38 | – | –
O=C1C[C@@H](c2ccccc2)n2nc(NC(=O)c3ccc(Cl)cc3Cl)nc2N1 | -7 | 0.73 | – | –
Cc1[nH]c2ccnn2c(=O)c1CC(=O)N(CC1CC1)C1CCCCC1 | 30 | -3.41 | – | –
CCOCCCN(Cc1ccco1)S(=O)(=O)c1cc2c(cc1C)NC(=O)CO2 | -15 | 1.82 | – | –
Cc1nnsc1CN(C)C(=O)CN1C(=O)COc2cccnc21 | -9 | 1.45 | – | –
CC(C)N1CCC(NCc2cn(C(C)(C)C)nn2)C1c1ccc(Cl)c(F)c1 (stereo not given) | -6 | 0.56 | – | –
O=C(NC[C@H]1CCCC1(F)F)c1ccc2c(c1)COC2 | -6 | 1.14 | – | –
Cc1noc(CCNC(=O)NC[C@H](O)c2cccs2)n1 | -2 | 0.19 | – | –
COc1ncc(Br)c(NCCc2cc[nH]n2)n1 | -16 | 2.12 | – | –
CC[C@H](N)C(=O)Nc1cccc(C(=O)N(C)C)c1C | -11 | 1.87 | – | –
Cc1noc(C)c1S(=O)(=O)NCc1cccnc1N1CCCCCCC1 | -19 | 1.75 | – | –
COC(=O)Nc1cccc(OS(=O)(=O)CC2(OC)CCCC2)c1 | 2 | -0.27 | – | –
O=C(NCc1cccnc1-c1ccncc1)c1cnccn1 | -11 | 1.24 | – | –
CCn1cc(S(=O)(=O)Nc2ccc(-c3nc4ccc(Cl)cc4s3)c(Cl)c2)cn1 | -9 | 1.1 | – | –

SMILES | % Inhibition [%] | Z score | % Inhibition (2 µM) | Z score (2 µM)
C[C@@H](Cc1cccs1)NC(=O)Cc1n[nH]c(=O)[nH]1 | 7 | -0.87 | – | –
Cc1cccc(NC(=O)CCS(=O)(=O)c2ccc3c(c2)CC(=O)N3C)c1C | -11 | 1.45 | – | –
COc1nscc1CN(C)C(=O)Cc1ccco1 | 16 | -2.05 | – | –
O=S(=O)(Nc1nc2ccccc2nc1Nc1ccc2c(c1)OCO2)c1ccc(Cl)cc1 | -3 | 0.41 | – | –
COc1cc(NC(=O)N[C@H]2CCCc3occc32)ncn1 | -7 | 0.72 | – | –
Cc1ccc(CN(CCN2CCOCC2)C[C@H](O)COCc2ccco2)c(C)c1 | -6 | 0.81 | – | –
CCNc1ccnc(NCCc2cc(O)nc(C)n2)n1 | -4 | 0.56 | – | –
Fc1ccccc1-c1noc(NCCc2ccc(Cl)cc2)n1 | -14 | 1.24 | – | –
CC(C)c1cc(C(=O)N(C)C2CCCCC2S(C)(=O)=O)n[nH]1 (stereo not given) | -15 | 1.77 | – | –
CC(C)(C)OC(=O)N1CCC[C@H](Cn2ccc3ccccc32)C1 | -6 | 0.67 | – | –
CC1(C)CCN1C(=O)c1cc(C2CC2)nc2ccccc12 | 3 | -0.35 | – | –
OC[C@H](CN1CCOCC1)Nc1nccs1 | 0 | 0.01 | – | –
Cc1nc2c(s1)CCC[C@@H]2NC(=O)COCC(F)(F)C(F)F | 9 | -1.3 | – | –
COC(C)(C)c1noc(-c2n[nH]c3ccccc23)n1 | -12 | 1.64 | – | –
CCCOCC(=O)N1CCC[C@H](c2cc(N3CCOCC3)nc(C)n2)C1 | -5 | 0.58 | – | –
O=C(CN1CCCc2nc(-c3ccncc3)ncc2C1=O)NCCN1CCOCC1 | -12 | 1.89 | – | –
CC(=O)NCc1cc2n(n1)CCN([C@H]1CCN(Cc3ccccc3)C1)C2 | -4 | 0.83 | – | –
CCc1cc(C(=O)NC[C@H]2CCCN2C2CCCCC2)n(C)n1 | -4 | 0.8 | – | –
Cc1nc(NCCCOC(C)C)nc2[nH]ncc12 | -16 | 2.28 | – | –
